# Data: article PMC12040169 (PLOS Biology, 2025)
# Some of the results follow.
# System: T1, C. trachomatis L2/434/Bu expressing GFP (CTL2-GFP)
# T1 construct: L2/434/Bu GFP intracellular growth in HeLa cells
# Parameters: species or system HeLa; C. trachomatis total inclusion area by high-content imaging, normalised to DMSO
# Conditions: total inclusion area; 28.5 h, 10 µM; inhibitor
# In short: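 After bulk GFP and resorufin fluorescence reads, cells were fixed, stained with Hoechst and imaged by high-content microscopy. Inclusion area and number (GFP) stood in for chlamydial growth, nuclei count (Hoechst) for host cell viability. MICs were derived as for the bulk readout.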
row,Structure (SMILES),% of control remaining
1,CC(C)(c1ccc(OC(=O)c2ccc(N)cc2)cc1)c1ccc(OC(=O)c2ccc(N)cc2)cc1 [CBK260962],105.059
2,COc1cc(CN2CCN(S(=O)(=O)c3ccc(Cl)cc3)CC2)cc(OC)c1OC [CBK074499],88.8184
3,Oc1ccc(-n2ncc(-c3ccc(F)cc3)n2)cc1 [CBK112904],88.7005
4,Nc1nonc1C(=O)NCc1cccnc1 [CBK025695],43.0815
5,O=C(Nc1nnc(C(F)(F)F)s1)c1ccc(F)c(Cl)c1 [CBK076831],77.8556
6,CCN1C(=O)/C(=C/c2cc3c(cc2Cl)OCO3)NC1=S [CBK265117],68.4494
7,N#Cc1ccc(NCc2ccccc2CN2CCCC2CO)nc1 (centres unmarked) [CBK304055],66.0397
8,O=C(c1ccccc1)C1(CO)COCc2nccn21 (centres unmarked) [CBK009980],86.3517
9,COCOc1ccc(-c2nc(-c3cccs3)cnc2N)cc1 [CBK063977],107.468
10,O=C(NCCCn1cc(Cl)cn1)N1CCCN(Cc2cccs2)CC1 [CBK307279],56.439
11,CC(=O)Nc1ccc(-c2ccc(C(=O)NCc3cccnc3)cn2)cc1 [CBK158842],79.7979
12,CN(Cc1ccccc1)c1nccnc1-c1ccc(CO)cc1 [CBK038067],114.082
13,OC1CSc2nc(-c3cnccn3)nn2C1 (centres unmarked) [CBK027096],95.9745
14,CCOC(=O)C1=NN(C(=O)c2ccc(Cl)cc2)C(O)(C(C)(C)C)C1 (centres unmarked) [CBK026308],80.2275
15,S=c1[nH]nnn1-c1ccc(Cl)c(Cl)c1 [CBK016327],108.065
16,O=c1c2cc(Br)cc(F)c2ncn1CCC1CCCO1 (centres unmarked) [CBK306451],55.2557
17,Cc1cc(CCCC(=O)N2CCCC(c3ccc(Nc4ncccn4)cn3)C2)ccc1F (centres unmarked) [CBK286003],126.669
18,Fc1cc(CN2CCC3(CC2)OCCc2c3[nH]c3ccc(Br)cc23)cc(F)c1F [CBK039943],37.0967
19,C(=C\c1ccccc1)/CN1CCN(c2ncccn2)CC1 [CBK261909],88.3722
20,O=C1NC2(CCN(C(=O)Cc3ccc(F)cc3)CC2)Oc2ccc(-c3ccccc3)cc21 [CBK115832],94.2618
21,COc1cc(Nc2cc(-c3ccc(NC(C)=O)cc3)ncn2)cc(OC)c1OC [CBK090710],123.513

row,Structure (SMILES),% of control remaining
1,Cc1cccc(NCC2CCN(CC(=O)Nc3cc(C)on3)C2)n1 (centres unmarked) [CBK306118],49.7991
2,O=C(O)C1CCN(C2C(=O)Nc3ccc(Cl)cc3C2c2ccccc2)CC1 (centres unmarked) [CBK287210],97.8473
3,O=C(O)c1cccc(S(=O)(=O)Nc2nc3c(Cl)cccc3s2)c1 [CBK161135],98.3309
4,NC(=O)Nc1ccc(C(=O)N2CCN(c3ccccc3)CC2)cc1 [CBK306392],72.1334
5,CCc1ccccc1C(=O)N1CCCCC1CC (centres unmarked) [CBK081556],53.9418
6,O=C(O)c1cccc(-c2nccnc2NCC2CC2)c1 [CBK038043],80.899
7,O=C(Nc1nn(Cc2c(F)cccc2Cl)cc1Cl)c1cccnc1 [CBK268154],64.9567
8,CCN(CC)c1c(C)nc2ccc(C(=O)NC3CCN(C)CC3)cn12 [CBK145965],95.811
9,O=C(Nc1ccccc1)c1cccc(S(=O)(=O)NCc2cccs2)c1 [CBK058153],57.5384
10,Cc1ccc(-c2c[nH]c([C@@H]3COCCN3Cc3csnn3)n2)cc1 [CBK289302],116.613
11,O=C(c1cnc[nH]1)N1CCn2nc(C(O)Cc3ccccc3)cc2C1 (centres unmarked) [CBK307558],91.8103
12,Cc1ccccc1Cn1c(CN2CCN(c3ccccc3)CC2)nc2c1c(=O)n(C)c(=O)n2C [CBK269488],81.0993
13,COc1ccc(C(C)C)cc1-c1cncc(N[C@@H](CO)C(C)C)n1 [CBK065356],110.977
14,O=C(O)CSc1nccn1Cc1ccccc1 [CBK262215],107.251
15,Cc1ccc(S(=O)(=O)N2CC=CCC2)cc1 [CBK058443],81.404
16,CN(C(=O)c1c[nH]nc1-c1ccc(CNC(=O)c2cccc(Cl)c2)cc1)c1ccccc1 [CBK285597],77.8031
17,O=C(NC1CCCCC1)c1ccccc1NC(=O)C1CCCCC1C(=O)O (centres unmarked) [CBK267675],81.4695
18,CC(=O)Nc1ccc(-c2ccc(COC3CCN(C(=O)c4ccc(F)cc4F)CC3)cc2)cc1 [CBK149216],87.8415
19,O=C(Nc1cccnc1)c1cccc(S(=O)(=O)N2CCCC2)c1 [CBK269846],90.0812
20,CCOC(=O)N1CCN(Cc2ccc(O)c(OC)c2)CC1 [CBK261873],100.384
